The source of these data is paper PMC12040169 (PLOS Biology, 2025).

Some of the results follow.

The assay has as its system T1, C. trachomatis L2/434/Bu expressing GFP (CTL2-GFP).
T1 construct: L2/434/Bu GFP intracellular growth in HeLa cells
Also noted: species or system HeLa; C. trachomatis total inclusion area by high-content imaging, normalised to DMSO. As to conditions: total inclusion area; 28.5 h, 10 µM; inhibitor. In outline: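 After bulk GFP and resorufin fluorescence reads, cells were fixed, stained with Hoechst and imaged by high-content microscopy. Inclusion area and number (GFP) stood in for chlamydial growth, nuclei count (Hoechst) for host cell viability. MICs were derived as for the bulk readout.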
Regarding `CC(C)N/C(=N/S(=O)(=O)c1ccccc1)c1ccccc1` [CBK262346], the “% of control remaining” value worked out at 109.011.
As for `COc1ccc(/C(C#N)=C/c2ccc(-c3ccc(C(=O)O)cc3)o2)cc1OC` [CBK268953], the “% of control remaining” value is 99.9459.
On to `Cc1n[nH]c(C)c1CCC(=O)N/N=C/c1ccc(O)cc1` [CBK262927], for which the “% of control remaining” value came out at 120.414.
Turning to `O=C(NC(c1ccccc1)c1cccnc1)C1CCN(C(=O)NCCc2cccs2)CC1` (centres unmarked) [CBK060313], the “% of control remaining” value came to 83.442.
In the case of `COC(=O)c1cccc2c1CCCN2Cc1nnc(C2CCC2)o1` [CBK304072] it was 61.9045; in that of `Cc1ccc(N2CC(C(=O)Nc3ccc(S(=O)(=O)NCC4CCCO4)cc3)CC2=O)cc1` (centres unmarked) [CBK267532], 90.1874.
Turning to `COc1ccccc1CCC(=O)N1CCCc2c(cnn2C)C1` [CBK284847], the “% of control remaining” value was found to be 114.668.
To `O=C(CSc1ncn(-c2ccccc2)n1)Nc1ccc(F)c(Cl)c1` [CBK267313] belongs 105.719; to `O=C1c2ccccc2CN1c1ccc(OC(F)(F)F)cc1` [CBK113237], 48.138; to `O=C(CC(CN1CCN(c2ccccn2)CC1)C(=O)O)NCc1ccccc1` (centres unmarked) [CBK286649], 84.4232.
To `Cn1cccc1CN1CCCC(n2c(=O)oc3ccccc32)C1` (centres unmarked) [CBK285111] belongs 120.999; to `O=C(/C=C/c1ccsc1)Nc1ccc(F)cc1` [CBK057139], 82.6076.
Take `CNC(=O)c1ccc(-c2ccc(C(C)=O)s2)nc1NCC1CC1` [CBK106307]: the “% of control remaining” value was determined as 61.462.
In the case of `COc1ccc([C@@]23CC[C@@H](NC(=O)Nc4ccc(C(C)(C)C)cc4)C[C@@H]2N(C)CC3)cc1OC` [CBK036469T] it was 68.3281; in that of `NCCOc1ncccc1OCc1ccccc1` [CBK036305], 42.0894.
`CCOC(=O)c1c(NC(=O)c2cc3ccccc3o2)sc2c1CCCC2` [CBK262552]: the “% of control remaining” value is reported as 115.46.
In the case of `O=C(O)CC(NCc1ccccc1)C(=O)Nc1ccc(Cl)cc1` (centres unmarked) [CBK267141] it was 101.553; in that of `O=C(CSCc1ccc(Cl)cc1Cl)Nc1nccs1` [CBK131921], 97.5487; in that of `Cc1cc(NC(=O)C(=O)NCCCN2CCOCC2)ccc1Br` [CBK268046], 115.195.
To `Cc1cc(O)c(-c2n[nH]c3c2C(c2ccccc2F)N(Cc2cccnc2)C3=O)cc1C` (centres unmarked) [CBK268831] belongs 99.5023; to `Clc1cccc(-c2cncc(N3CCN(c4ccncc4)CC3)n2)c1` [CBK066099], 94.5889.
`O=C(O)c1ccc(-c2n[nH]c(=O)c3ccccc23)cc1` [CBK287148]: the “% of control remaining” value turned out to be 107.84.
As for `COC(=O)c1ccc(S(=O)(=O)N2CCC(C)CC2)cc1` [CBK070414], the “% of control remaining” value is recorded as 78.2858.
In the case of `COc1ccccc1CCNC(=O)c1ncoc1-c1cccs1` [CBK282394] it was 74.0189; in that of `COC(=O)Nc1ccc(S(=O)(=O)N2CCCC(C(=O)O)C2)cc1` (centres unmarked) [CBK265364], 105.982; in that of `Cc1cc(SCc2ccc(Cl)cc2)nc(=O)[nH]1` [CBK287719], 97.2236.
Take `O=C(CN1CCOCC1)NC(=O)Nc1ccccc1` [CBK269213]: the “% of control remaining” value is reported as 86.2414.
In the case of `COc1ccccc1CN1CC[C@H]2NC(=O)CNC(=O)C3(C/C=C/C[C@H]2C1)CCN(C(C)=O)CC3` [CBK292107] it was 95.8126; in that of `Cc1nn(Cc2cccc3ccccc23)c(C)c1NC(=O)c1ccncc1` [CBK269990], 77.8184.
In the case of `COc1ccc(N2CCN(c3cc(C)nc4cc(-c5nccn5C)nn34)CC2)cc1` [CBK286187] it was 146.644.
For the compound `O=C1NC2(CCCCCC2)C(=O)N1Cc1coc(-c2cccs2)n1` [CBK305858], the “% of control remaining” value is 78.3845.
As to `COC1CCCC(C(=O)NC(Cc2ccsc2)c2cccnc2)C1` (centres unmarked) [CBK284654], the “% of control remaining” value was determined as 101.89.
In the case of `COc1cc(C(=O)Nc2nc3c(s2)CC(C)CC3)cc(OC)c1OC` (centres unmarked) [CBK287299], the “% of control remaining” value was 49.1573.
Turning to `CCCNC(=O)N1CCCC(Cc2ccc(F)cc2F)(C(=O)OCC)C1` (centres unmarked) [CBK307031], the “% of control remaining” value was determined as 66.5913.
To `Cc1ccc(S(=O)(=O)N2CCCCC2CO)cc1` (centres unmarked) [CBK051142] belongs 61.4623; to `CCOc1ccc(CNc2ccc(S(N)(=O)=O)cc2)cc1` [CBK267962], 100.955; to `CN(C)C(=O)c1sc2ccccc2c1Cl` [CBK067817], 85.997.
To `Cc1nc2c(C(=O)NCCCN3CCCC3=O)cnn2c(C)c1Cc1cccc(F)c1` [CBK162104] belongs 56.3867; to `N#CCCn1cc(C(=O)N2CCOCC2)c(-c2cccc(Cl)c2)n1` [CBK306208], 44.6944.
To `CC(C)(C)c1ccc(C(=O)Nc2nsc(-c3ccc(Cl)cc3)n2)cc1` [CBK113176] belongs 100.521.
Regarding `O=c1[nH]c2ncc(-c3cccc4cccnc34)nc2n1Cc1cccnc1` [CBK064305], the “% of control remaining” value turned out to be 100.478.
In the case of `CCn1nccc1C(=O)NC1=C(C#N)CCC1` [CBK265836] it was 105.91; in that of `Cc1onc(-c2ccccc2Cl)c1C(=O)Nc1ccc(S(=O)(=O)NCC2CCCO2)cc1` (centres unmarked) [CBK267536], 100.175; in that of `COc1cc2[nH]c(=S)n(CCc3c[nH]cn3)c(=O)c2cc1OC` [CBK268333], 96.712.
To `Cc1cc(N2CCOCC2)ccc1NC(=O)CCOc1cccc(Cl)c1` [CBK305724] belongs 112.044; to `COc1cccc(CNC(C)(C)CO)c1OCc1ccc(Cl)cc1` [CBK266552C], 117.004.
To `O=C(c1cc(-c2cccs2)[nH]n1)N1CCCCCC1` [CBK288108] belongs 110.885.
Turning to `CC(Nc1cc(N2CCN(S(=O)(=O)N(C)C)CC2)ccc1[N+](=O)[O-])C12CC3CC(CC(C3)C1)C2` (centres unmarked) [CBK265479], the “% of control remaining” value is given as 81.1209.
To `Cc1nnc2sc(-c3ccc(NC(=S)NC(=O)c4ccc(-c5ccccc5[N+](=O)[O-])o4)cc3)nn12` [CBK266803] belongs 112.219.
In the case of `Cc1cc(O)nc(SCCOCCSc2ccc(Cl)cc2)n1` [CBK267372], the “% of control remaining” value was determined as 122.169.
In the case of `Cc1ccc(-c2ccnc3[nH]c(=O)[nH]c(=O)c23)cc1` [CBK287978] it was 97.1245.
With `Cc1cc(C)c(C)c(C(=O)COC(=O)c2cc(O)nc3ccccc23)c1C` [CBK264066], the “% of control remaining” value amounted to 95.2003.
Turning to `CC(=O)Cc1ccccc1OCC(=O)O` [CBK261031], the “% of control remaining” value was 104.589.
To `Cc1cccc(C2(c3cccc(C)c3)CC2C(=O)NCc2cccnc2)c1` (centres unmarked) [CBK262382] belongs 99.4237; to `CN1C(=O)c2ccccc2OCCCCC[C@H]2[C@@H]1CCCN2C(=O)CN1CCN(CCO)CC1` [CBK292144], 117.056; to `O=C(Nc1ccccc1[N+](=O)[O-])C1Cc2ccccc2CN1S(=O)(=O)c1ccc(F)cc1` (centres unmarked) [CBK266129], 126.135.
Turning to `CCOC(=O)c1ccc(N2C(=O)CC(N3CCCc4ccccc43)C2=O)cc1` (centres unmarked) [CBK268720], the “% of control remaining” value is listed as 73.5054.
To `Cn1c(=O)n(C)c2cc(S(=O)(=O)NCCOc3ccc(C(=O)O)cc3)ccc21` [CBK299824] belongs 63.1598; to `O=S(=O)(NCc1ccc(C(F)(F)F)cc1)c1cccs1` [CBK043744], 89.8525; to `CC(=O)N1CC[C@H]2NC(=O)CNC(=O)C3(CCCC[C@H]2C1)CCN(C(=O)/C=C/c1ccccc1)CC3` [CBK292092], 89.3691.
As for `COc1ccc(Nc2cc(-c3ccco3)ncn2)c(OC)c1` [CBK090761], the “% of control remaining” value is 62.5327.
To `CCCCN(/C=N/S(=O)(=O)c1ccccc1)CCCC` [CBK026576] belongs 122.952; to `COc1cc2cc(CN(Cc3cccnc3)C(=O)Nc3ccc(F)cc3)c(=O)[nH]c2cc1OC` [CBK108193], 107.925.
With `CC(C)N(CCOc1nccnc1/C=C/c1ccccc1)C(C)C` [CBK106889], the “% of control remaining” value was determined as 104.988.
In the case of `O=C(c1ccno1)N1CCc2ccccc21` [CBK200409] it was 104.64; in that of `Nc1ncc(-c2ccoc2)nc1-c1ccc(C(=O)N2CCOCC2)cc1` [CBK064076], 102.871; in that of `CC(C)C(NS(=O)(=O)c1ccc(I)cc1)C(=O)O` (centres unmarked) [CBK268703], 100.55.
To `COc1ccc2[nH]c3c(c2c1)CCN(C(C)=O)C31CCNCC1` [CBK284429] belongs 59.9502; to `O=C(O)c1ccc2c(c1)C(=O)N(c1ccc3c(c1)Cc1cc(N4C(=O)c5ccc(C(=O)O)cc5C4=O)ccc1-3)C2=O` [CBK261333], 100.301.
To `COc1ccc([C@@]23CC[C@@H](NC(=O)Nc4cccc(-c5cnco5)c4)C[C@@H]2N(C)CC3)cc1OC` [CBK059338T] belongs 82.3003.
For the compound `N#C/C(=C\c1cn(CCC(N)=O)c2ccccc12)c1nc2ccccc2[nH]1` [CBK267966], the “% of control remaining” value is 40.4537.
In the case of `CS(=O)(=O)N1CC2(CCN(Cc3cc(=O)[nH]c(=O)[nH]3)CC2)c2ccccc21` [CBK126679], the “% of control remaining” value is listed as 110.156.
For the compound `O=C(NC1CCCC1)c1cccnc1` [CBK200236], the “% of control remaining” value is reported as 99.0694.
In the case of `CC(C)(C)c1ccc(C(=O)N2CC[C@H]3NC(=O)N(Cc4ccccc4)C(=O)[C@H]32)cc1` [CBK289294] it was 119.523.
Take `CC(C)OC(=O)Cc1nc(CN2CCc3sccc3C2C)cs1` (centres unmarked) [CBK305284]: the “% of control remaining” value worked out at 40.5262.
For `OCCN1CCN(C(=S)NC2CCCC2)CC1` [CBK265886], the “% of control remaining” value was determined as 100.098.
For the compound `COc1ccc(CN2CCN(c3ccccn3)CC2)cc1O` [CBK261570], the “% of control remaining” value worked out at 94.2103.
To `CC(C)n1cnnc1CN(C)C(=O)CCc1nc2ccccc2s1` [CBK304638] belongs 51.4185; to `NC(=O)c1cccc(-c2cnc(N)c(NCc3ccco3)n2)c1` [CBK063660], 95.8735.
Consider `N#C/C(=C\Nc1ccc(S(N)(=O)=O)cc1)c1nc(-c2cc3c(ccc4ccccc43)oc2=O)cs1` [CBK262376], for which the “% of control remaining” value is 94.8591.
